# Assay results as given in PubChem BioAssay AID1240 (Sanford-Burnham Center for Chemical Genomics, 2008).
# Among all 50,000 compounds or so, about 800 (1.6%) showed an effect of 50% or more. The list shows a part of the results.
# Target: Bcl-2-like protein 10 (Homo sapiens) (UniProt Q9HD36)
# Test: Phenotype converters, Bcl-B/TR3 peptide binding displacement, primary biochemical FP (AID 1240);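 further: 0% = Bcl-B with tracer peptide and DMSO and 100% = tracer peptide lacking Bcl-B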
# Details: GST-Bcl-B / FITC-TR3 peptide fluorescence polarization; stronger effect = higher value; compound at 3.75 mg/L
# Chain of UniProt Q9HD36 (Q9HD36 whole entry, looked up): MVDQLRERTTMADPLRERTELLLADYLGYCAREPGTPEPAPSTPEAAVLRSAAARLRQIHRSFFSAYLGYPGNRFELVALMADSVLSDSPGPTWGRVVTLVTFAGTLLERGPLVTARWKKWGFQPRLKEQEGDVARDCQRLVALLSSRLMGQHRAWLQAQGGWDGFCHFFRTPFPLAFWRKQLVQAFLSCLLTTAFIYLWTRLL
row,Compound,displacement [%]
1,O=C(Nc1cccnc1)c1cnn2c1NC(c1ccco1)CC2C(F)(F)F (configuration not stated),3.4
2,CC(C)(C)C1=NN(C(=O)c2ccccc2)C(O)(C(F)(F)F)C1 (configuration not stated),10.3
3,CC(O)c1cccc(NC(=O)c2cc3n(n2)C(C(F)(F)F)CC(c2ccc(Cl)cc2)N3)c1 (configuration not stated),14.7
4,O=C(Nc1ccc(Cl)c(-c2nc3ncccc3o2)c1)c1ccccc1,3.7
5,CCOC(=O)COc1ccc(/C=N/NC(=O)COc2ccc([N+](=O)[O-])cc2)c(OCC(=O)OCC)c1,8
6,CCOC(=O)Cn1c(C)cc(COC)c(C#N)c1=O,2.5
7,O=c1[nH]c(=O)n(Cc2ccccc2)cc1F,-2.7
8,C=CCn1c(-c2cccc(Cl)c2)n[nH]c1=S,-18.7
9,CCn1ccnc1C(O)(c1ccccc1)c1ccc(C)cc1 (configuration not stated),-1
10,O=C(O)/C(=C/c1ccccc1)c1c(F)c(F)c(F)c(F)c1F,-6.3
11,COc1cccc(-n2c(C=C3C(=O)N(C(C)C)c4ccccc43)nc3ccccc3c2=O)c1,-4
12,COc1cc(/C=C2\C(=O)N(c3ccccc3)N=C2C)c([N+](=O)[O-])cc1OC,-11.5
13,CC1=C(C(=O)Nc2ccccc2)C(c2ccc(F)cc2)N2C(=O)CSC2=N1 (configuration not stated),-9.4
14,O=C(c1ccco1)N1CCN(CCN2C(=O)c3cccc4cccc(c34)C2=O)CC1,16.9
15,O=C(CN1C(=O)c2ccc([N+](=O)[O-])cc2C1=O)Nc1cc(Cl)ccc1C(=O)O,12.4
16,O=C(O)CCCNS(=O)(=O)c1ccc(Br)c(C(=O)O)c1,-3.7
17,CC1(C)OC(=O)C(=Cc2ccc(I)o2)C(=O)O1,26.4
18,Cc1ccc(C#CC#Cc2ccc(C)nc2)cn1,19.9
19,Fc1ccccc1Cn1nnc(-c2ccccc2)n1,-2.3
20,NS(=O)(=O)c1ccc(NC(=S)NC(=O)c2ccc(Br)cc2)cc1,1
21,COc1ccc(C2NC(=S)NC3=C2N2CCC3CC2)cc1 (configuration not stated),-5.7
22,c1cc(CN2CCN(C3CCCCCC3)CC2)ccn1,-13.5
23,Cc1ccc(N2C(=O)CC(Sc3ccc(F)cc3)C2=O)cc1 (configuration not stated),1.9

row,Compound,displacement [%]
1,CCc1ccc(-c2nnc(-c3ccccc3Cl)o2)cc1,-1.7
2,COC(=O)COc1ccc(/C=N/n2cnnc2)cc1OC,-6.6
3,CCCCN(CCCC)C(=O)c1ccc(Cl)cc1Cl,-10.4
4,COc1ccc(C(=O)/C=C/c2ccc(OC3CSC3)cc2)cc1OC,2.2
5,NC(=O)c1c(NC(=O)c2ccc(F)cc2)sc2c1CCCC2,-1.5
6,COc1ccc(N2C(=O)C(Cl)=C(Nc3ccc(C)cc3)C2=O)cc1,-24.9
7,O=P(O)(Oc1cccc(Cl)c1)Oc1cccc(Cl)c1,14.6
8,CC(=O)NC(n1c(SCc2ccccc2)nc2ccccc21)C(Cl)(Cl)Cl (configuration not stated),8.3
9,CCOC(=O)C1=C(C)N=C2SCC(=O)N2C1c1ccc(OC)c2ccccc12 (configuration not stated),-4.6
10,O=C(c1ccc2ccccc2c1)N1CCN(c2ccc([N+](=O)[O-])cc2)CC1,15.6
11,COc1cc(/C=C2/C(=O)NN(c3cccc(Cl)c3)C2=O)c([N+](=O)[O-])cc1OC,0.3
12,O=c1[nH]c(/C=C/c2ccccc2)c([N+](=O)[O-])c(=O)[nH]1,18.1
13,COc1ccc(/C=C/C(=O)NCC2CCCO2)cc1Br (configuration not stated),13.6
14,COc1ccc([N+](=O)[O-])cc1N1C(=O)C2C3C=CC(C3)C2C1=O (configuration not stated),-11.7
15,COc1ccccc1C=C1C(=O)NC(=S)N(c2ccccc2F)C1=O,10
16,COc1ccc(Cl)cc1N(CC(=O)NCCSc1nc2ccccc2s1)S(=O)(=O)c1ccccc1,3.4
17,O=C1NN(c2ccccc2)C(=O)/C1=C/c1cccn1-c1ccc([N+](=O)[O-])cc1,34.7
18,COc1ccc(NC(=O)c2nn3c(C(F)(F)F)cc(-c4ccco4)nc3c2Cl)c(OC)c1,-2.5
19,CCOCCOC(=O)c1ccc(NC(=O)c2cccc(Br)c2)cc1,-6.6
20,CC1=C(C(=O)Nc2ccc(C)cc2)C(c2cc(Br)ccc2O)NC(=O)N1 (configuration not stated),-1
21,Cc1ccccc1NC(=O)C(=O)NCCCN1CCOCC1,9.6
22,CC(C)(C)C(O)Cn1c(=N)n(Cc2ccccc2)c2ccccc21 (configuration not stated),-6
23,CC(=O)Nc1ccccc1C(=O)N1CCN(Cc2ccccc2)CC1,3.3

row,Compound,displacement [%]
1,O=[N+]([O-])c1ccc(OCCCCCN2CCOCC2)cc1,11.6
2,O=C1/C(=C\c2cccc(O)c2)SC(=S)N1c1cccc(C(F)(F)F)c1,9.3
3,O=C(CSc1ccc(Cl)cc1)NCCc1ccc(F)cc1,-8.3
4,OCCN=Cc1ccc(Cl)cc1Cl,-4.2
5,COc1cc(/C=C2\C(=O)NC(=S)N(c3ccc(F)cc3)C2=O)ccc1OCC(=O)O,6.8
6,O=C(COc1ccc2ccccc2c1)N1CCN(c2ccccn2)CC1,5.4
7,CCC(C)C(NC(=S)Nc1ccccc1)C(=O)O (configuration not stated),10.2
8,O=C(Nc1ccccc1)c1ccccc1C(=O)OCCCCCc1cccs1,1.6
9,CC(=O)Nc1ccccc1NC(=O)COc1ccc(C)cc1,5.8
10,O=c1/c(=C/c2ccc(O)c(Cl)c2)sc2nc3ccccc3n12,24.9
11,CCn1c(C)c(C(=O)O)c2cc(OC)c3ccccc3c21,8.5
12,COc1ccc(C(=O)N2CCN(C(=O)c3cccc4ccccc34)CC2)cc1OC,-10.3
13,Cc1c(Cl)cccc1N=C1NC(=O)/C(=C/c2ccc3c(c2)OCO3)S1,-2.5
14,Cc1cccc(C(=O)Nc2cccc(S(N)(=O)=O)c2)c1,3.8
15,CCCCOC(=O)c1ccc(N2CCOCC2)cc1,-3.6
16,CC(C)(C)c1ccc(C(=O)N2CCN(C/C=C/c3ccccc3)CC2)cc1,13.1
17,COCCN1C(=O)/C(=C2/C(=O)N(CC(N)=O)c3ccccc32)SC1=S,-40
18,COc1ccc(-c2cn3c(n2)SCC3)cc1,-4.2
19,C=CCc1cccc2cc(C(=O)Nc3cccc4c3C(=O)c3ccccc3C4=O)c(=O)oc12,1.4
20,COc1ccc(Cl)cc1C(=O)Nc1cccc(-c2nc3cc(C)c(C)cc3o2)c1,8.7
21,CCOc1ccc2ccc(OCC)c(/C=C3/SC(=S)NC3=O)c2c1,-0.8
22,Cc1ccc(-c2cc(NC(=O)c3cccs3)n[nH]2)cc1,11
23,COc1ccc(NC(=S)NCc2ccc(F)cc2)cc1,14.6

row,Compound,displacement [%]
1,O=C(NCc1ccc2c(c1)OCO2)c1ccc2c3c(cccc13)CC2,-12.3
2,CCCCCCC(=O)Nc1nnc(CC(C)C)s1,-12.9
3,Cc1cc(C)nc(SCC(=O)NC(C)(C)C)n1,3.9
4,C=CCN1C(=O)/C(=C\c2ccc(N(CC)CC)cc2O)SC1=S,-39
5,COc1cc(OC)c(OC)cc1CN1CCN(Cc2cccn2C)CC1,28.3
6,Fc1ccc(-c2noc(-c3ccccc3)n2)cc1,-11.5
7,O=C(COc1ccc2ccccc2c1)Nc1cccc(Br)c1,3.7
8,CCc1ccccc1NC(=O)CC1Nc2cc(C)c(C)cc2NC1=O (configuration not stated),-85
9,O=C1NC(=S)N/C1=C\c1ccccc1,0.7
10,O=C1C/C(=C/NCCc2ccc(O)cc2)C(=O)N1,8.5
11,COC(=O)C[N+]1=Cc2cc(OC)c(OC)cc2CC1(C)C,1.4
12,NC(=O)C1CCN(C(=O)COc2ccccc2)CC1,3.9
13,Brc1ccc2ncnc(NCc3ccco3)c2c1,3.1
14,CCC12C(=O)C(CC)(C(c3ccccc3)=C1c1ccccc1)C1C(=O)N(c3ccccc3[N+](=O)[O-])C(=O)C12 (configuration not stated),2
15,O=C(Nc1ccc(Cl)c(-c2nc3ccccc3[nH]2)c1)c1ccc(I)o1,19.4
16,COc1ccc(S(=O)(=O)N(CC(N)=O)c2ccc(C)cc2)cc1OC,-0.7
17,COc1ccc(NC(c2ccccc2)c2ccncc2)cc1 (configuration not stated),-2.5
18,O=C(O)C1C2C=CC(O2)C1C(=O)Nc1cc(Cl)cc(Cl)c1 (configuration not stated),3.7
19,Cc1ccc(OCC(=O)NC(C)c2ccccc2)cc1C (configuration not stated),89.2
20,COc1ccc(C(=O)NCCc2cccc(Cl)c2)cc1OC,4
21,COc1ccc(N2C(=O)NC(=O)/C(=C/c3cc(Br)c(OCCOc4ccccc4OC)c(OC)c3)C2=O)cc1,1.9
22,CCOC(=O)c1ccccc1NC(=O)c1cncc(Br)c1,9.2
23,Cc1ccc(N2C(=O)/C(=C/c3ccc(F)cc3)SC2=S)cc1C,16.9

row,Compound,displacement [%]
1,Cc1cccnc1NC(=O)Nc1ccc(Cl)cc1,-2.7
2,C=CCc1cccc2cc(C(=O)NC(C)c3ccccc3)c(=O)oc12 (configuration not stated),-8.5
3,O=C(C(=O)N1CCOCC1)c1c[nH]c2ccccc12,-1.6
4,CCOC(=O)c1ccccc1NC(=O)c1ccc(N(Cc2ccc(Cl)cc2)S(C)(=O)=O)cc1,12.1
5,Cc1ccc(NC(=O)COc2cccc(C)c2C)cc1Cl,5
6,COc1ccc(N(CC(=O)NCc2ccccc2)S(=O)(=O)c2ccc(C)cc2)cc1,-1.4
7,Cc1ccc(NC(=O)C(=O)NCCc2ccccc2)cc1C,13.2
8,COc1cc(/C=C2/NC(=S)NC2=O)cc(Cl)c1OC(C)C,-10.1
9,CC1=C(C(=O)Nc2ccc(Br)cc2)C(c2cccs2)NC(=S)N1 (configuration not stated),8
10,Cc1sc(NC(=O)c2ccc(F)cc2)c(C(N)=O)c1C,-4.9
11,COc1ccc(OC)c(C2/C(=C(/O)c3ccccc3)C(=O)C(=O)N2c2cccc([N+](=O)[O-])c2)c1 (configuration not stated),-0.1
12,CC1CCN(c2cc(N3CCC(C)CC3)c([N+](=O)[O-])cc2/C=C(\C#N)c2nn(-c3ccccc3)c(N)c2C#N)CC1,8.4
13,Cc1ccc(C(=O)Nc2nn[nH]n2)cc1,3.4
14,NC1=NC(=O)C(CC(=O)Nc2ccc(C(=O)O)cc2)S1 (configuration not stated),-10.5
15,O=[N+]([O-])c1ccccc1-c1nc(-c2cccnc2)no1,-1
16,Cc1cc(-c2ccccc2)nc2cc(-c3ccc(Cl)cc3)nn12,-5.4
17,Cc1cc(C)nc(SCCN2CCCCC2)n1,-15.1
18,COc1cccc(OCC(=O)NNC(=O)c2ccccc2C)c1,-9
19,Cc1ccc(NC(=O)C(=O)NCCN2CCN(S(=O)(=O)c3ccc([N+](=O)[O-])cc3)CC2)cc1,15
20,Ic1ccccc1NCn1nnc2ccccc21,-12.8
